Shown are siRNA guide strands that differ only in the seed, positions 2 to 7.
Experiments:
H4 = assay: cell viability relative to siNT1 (ATP content); H4 human neuroglioma and GL261 mouse glioma; higher = less toxic; conditions: siRNA concentration 10 nM; 96 h; human
GL261 = assay: as above; conditions: siRNA concentration 25 nM; 96 h; mouse
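Note: cells reverse transfected with siRNA duplexes via lipid reagent, ATP read by luminescence, triplicate wells, values scaled to mean viability with non-targeting control siNT1.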

| Sequence | cell viability (H4) [%] | cell viability (GL261) [%] |
| --- | --- | --- |
| UGGCUAGACAUGUAAACCA | 35.7 | 22.1 |
| UGGCUAUACAUGUAAACCA | 47.4 | 16.2 |
| UGGCUCAACAUGUAAACCA | 26.7 | 17.1 |
| UGGCUCCACAUGUAAACCA | 26 | 7.04 |
| UGGCUCGACAUGUAAACCA | 27.8 | 16.5 |
| UGGCUCUACAUGUAAACCA | 6.82 | 13.3 |
| UGGCUGAACAUGUAAACCA | 55.9 | 18.4 |
| UGGCUGCACAUGUAAACCA | 19.1 | 7.15 |
| UGGCUGGACAUGUAAACCA | 4.57 | 7.29 |
| UGGCUGUACAUGUAAACCA | 44.7 | 12.7 |
| UGGCUUAACAUGUAAACCA | 61.6 | 48 |
| UGGCUUCACAUGUAAACCA | 54 | 10.6 |
| UGGCUUGACAUGUAAACCA | 66.7 | 13.1 |
| UGGCUUUACAUGUAAACCA | 65.9 | 43.9 |
| UGGGAAAACAUGUAAACCA | 68 | 39 |
| UGGGAACACAUGUAAACCA | 62.7 | 25.6 |
| UGGGAAGACAUGUAAACCA | 83.4 | 37.1 |
| UGGGAAUACAUGUAAACCA | 68.1 | 46.3 |
| UGGGACAACAUGUAAACCA | 83.9 | 35.9 |
| UGGGACCACAUGUAAACCA | 80.6 | 24.8 |

| Sequence | cell viability (H4) [%] | cell viability (GL261) [%] |
| --- | --- | --- |
| UGGGACGACAUGUAAACCA | 61.9 | 50.2 |
| UGGGACUACAUGUAAACCA | 72.1 | 19.9 |
| UGGGAGAACAUGUAAACCA | 38.4 | 14 |
| UGGGAGCACAUGUAAACCA | 28.9 | 11 |
| UGGGAGGACAUGUAAACCA | 5.13 | 5.49 |
| UGGGAGUACAUGUAAACCA | 42.8 | 6.53 |
| UGGGAUAACAUGUAAACCA | 79.4 | 29.1 |
| UGGGAUCACAUGUAAACCA | 9.65 | 8.7 |
| UGGGAUGACAUGUAAACCA | 41.9 | 17.4 |
| UGGGAUUACAUGUAAACCA | 57.1 | 24 |
| UGGGCAAACAUGUAAACCA | 32.7 | 22.8 |
| UGGGCACACAUGUAAACCA | 30 | 16.4 |
| UGGGCAGACAUGUAAACCA | 13 | 12 |
| UGGGCAUACAUGUAAACCA | 34 | 21.9 |
| UGGGCCAACAUGUAAACCA | 30.7 | 44.8 |
| UGGGCCCACAUGUAAACCA | 29.2 | 21.6 |
| UGGGCCGACAUGUAAACCA | 10.1 | 17.8 |
| UGGGCCUACAUGUAAACCA | 13 | 10 |
| UGGGCGAACAUGUAAACCA | 34.4 | 16.5 |
| UGGGCGCACAUGUAAACCA | 42.2 | 14.4 |

| Sequence | cell viability (H4) [%] | cell viability (GL261) [%] |
| --- | --- | --- |
| UGGGCGGACAUGUAAACCA | 5.8 | 11.3 |
| UGGGCGUACAUGUAAACCA | 27.4 | 14.9 |
| UGGGCUAACAUGUAAACCA | 20.5 | 20.3 |
| UGGGCUCACAUGUAAACCA | 20.8 | 7.28 |
| UGGGCUGACAUGUAAACCA | 9.28 | 14 |
| UGGGCUUACAUGUAAACCA | 43.9 | 26.3 |
| UGGGGAAACAUGUAAACCA | 38.7 | 43.1 |
| UGGGGACACAUGUAAACCA | 8.06 | 13.2 |
| UGGGGAGACAUGUAAACCA | 20.4 | 17.5 |
| UGGGGAUACAUGUAAACCA | 27.2 | 13.5 |
| UGGGGCAACAUGUAAACCA | 9.51 | 21.9 |
| UGGGGCCACAUGUAAACCA | 8.28 | 11.5 |
| UGGGGCGACAUGUAAACCA | 13.1 | 10.7 |
| UGGGGCUACAUGUAAACCA | 6.06 | 11.8 |
| UGGGGGAACAUGUAAACCA | 7.99 | 12 |
| UGGGGGCACAUGUAAACCA | 5.58 | 14 |
| UGGGGGGACAUGUAAACCA | 4.82 | 54.6 |
| UGGGGGUACAUGUAAACCA | 4.87 | 11.3 |
| UGGGGUAACAUGUAAACCA | 32.3 | 20.9 |
